Data on 108 compounds can be found in PubChem BioAssay AID488969 (Vanderbilt High Throughput Screening Facility, 2010).

Over roughly 110,000 compounds, “z-score” has its median near -0.1; the highest 2% begin near 2. Some of the results follow. Active and inactive are the calls of the source.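 The calls were made as follows: active = z-score in the third read window above 3 or below -3; inactive = the rest.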

The target in the assay is Metabotropic glutamate receptor 8 (Rattus norvegicus) (UniProt P70579). The assay is described as follows: mGluR8 Gi/Go-coupled signaling modulation – cell-based, rat, thallium flux, HTS, primary screen (AID 488969). The following applies: HEK293 rat mGluR8, GIRK (G protein-gated inwardly rectifying potassium channel) thallium flux, FluoZin2; at 10 µM; stronger effect = higher value; submaximal glutamate (EC20) added with thallium.
Sequence of UniProt P70579 (P70579 whole entry, looked up): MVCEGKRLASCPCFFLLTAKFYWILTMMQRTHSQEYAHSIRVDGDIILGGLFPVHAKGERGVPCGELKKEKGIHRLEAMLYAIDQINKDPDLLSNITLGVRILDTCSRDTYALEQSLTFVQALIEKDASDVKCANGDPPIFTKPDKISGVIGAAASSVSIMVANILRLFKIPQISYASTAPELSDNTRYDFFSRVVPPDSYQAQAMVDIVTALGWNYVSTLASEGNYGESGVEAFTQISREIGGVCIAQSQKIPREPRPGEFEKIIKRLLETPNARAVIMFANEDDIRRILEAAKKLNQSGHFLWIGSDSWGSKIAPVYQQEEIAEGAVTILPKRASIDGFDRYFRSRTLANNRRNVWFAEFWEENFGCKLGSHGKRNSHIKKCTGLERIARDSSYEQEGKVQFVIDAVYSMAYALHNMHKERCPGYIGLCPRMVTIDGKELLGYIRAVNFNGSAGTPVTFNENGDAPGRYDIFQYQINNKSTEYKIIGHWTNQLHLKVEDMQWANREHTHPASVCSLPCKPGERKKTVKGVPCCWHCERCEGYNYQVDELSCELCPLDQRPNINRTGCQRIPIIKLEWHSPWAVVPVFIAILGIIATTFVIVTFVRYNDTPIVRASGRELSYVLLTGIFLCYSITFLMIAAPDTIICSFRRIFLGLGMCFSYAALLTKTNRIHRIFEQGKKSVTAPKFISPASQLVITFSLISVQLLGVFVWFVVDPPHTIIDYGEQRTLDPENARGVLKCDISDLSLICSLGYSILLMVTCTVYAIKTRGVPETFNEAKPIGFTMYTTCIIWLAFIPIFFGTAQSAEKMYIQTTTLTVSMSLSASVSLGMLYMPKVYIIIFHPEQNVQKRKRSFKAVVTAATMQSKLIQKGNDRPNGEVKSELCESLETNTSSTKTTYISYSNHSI
The compound `CCO/C=C1\C(=O)N(CC)c2ccccc21` returned a z-score of -0.427.
Take `CCOC(=O)Cn1nc(C)n(-c2ccc(C(C)C)cc2)c1=O`: the z-score came out at 0.324.
Next, `CCNc1nc(NCC)n2c(SC(C(=O)Nc3cc(C)ccc3OC)c3ccccc3)nnc2n1` (stereo not drawn): -0.463.
`O=C(COC(=O)C1(c2ccccc2F)CCCC1)N1CCc2ccccc21` had a z-score of 0.313.
As for `Clc1ccc(-c2n[nH]c3c2CCC3)cc1Cl`, the figure is -0.286.
Next, `O=C(COC(=O)C1CC(O)CN1S(=O)(=O)c1ccc(Cl)cc1)c1ccccc1` (stereo not drawn): -0.219.
`C/C(=N\NC(=O)C1CCCN(S(=O)(=O)c2ccccc2)C1)c1cccnc1` (stereo not drawn) registered a z-score of -0.109.
For the compound `Cn1cc(Br)c(C(=O)Nc2c(F)c(F)c(F)c(F)c2F)n1`, the z-score is -0.563.
On to `Cc1ccc(NC(=O)COc2ccc(C(=O)NCCc3ccccc3)cc2)cc1`, for which the z-score is -0.232.
Next, `CCn1c2ccccc2c2cnc(N=CN(C)C)c(C#N)c21`: 0.072; `O=C(NCCCN1CCCC1=O)c1ccccc1NS(=O)(=O)c1ccc(Br)cc1`: -0.938; `COc1cc2c3nnc(-c4ccc(F)cc4)c-3cn(Cc3cccc(C)c3)c2cc1OC`: -0.28.
Next, `COc1cccc(Nc2nc(-c3ccc4c(c3)OCCO4)cs2)c1`: -0.0336; `C/C=C/c1ccc(OCCCNCC(C)O)c(OC)c1` (stereo not drawn): 1.74; `CCCOc1ccc2c(=O)c(N3C(=O)c4ccccc4C3=O)c(C)oc2c1`: -0.186.
Next, `CC(C)CCn1c(SCC(=O)N2CC(=O)Nc3ccccc32)nc2scc(-c3cccs3)c2c1=O`: -0.0179.
`COC(=O)C1=C(C)NC(C)=C(C(=O)OC)C1c1ccc2ccccc2n1` had a z-score of 0.297.
Next, `Nc1[nH]nc2nc(N3CCOCC3)nc(-c3ccccc3)c12`: -0.0386.
Next, `S=c1[nH]cc(-c2ccccc2)n1-c1cccc(Cl)c1`: 2.94; `Cc1nn(-c2ccccc2)c(N)c1C(c1ccc(C(C)C)cc1)c1c(C)nn(-c2ccccc2)c1N`: 0.356.
`CCN(CC)S(=O)(=O)c1ccc(NC(=O)c2cccc3c2C(=O)N(CCOC)C3)cc1` had a z-score of -0.302.
`CCCn1cc2c(c1-c1cccc(C)c1)c(=O)n(C)c(=O)n2C`: the z-score was -0.197.
The compound `CCCc1nc(Nc2nc3ccccc3o2)nc(C)c1C(=O)OCC` returned a z-score of 0.35.
As to `CC1=C(C)CC(C(=O)NCCc2ccccc2)C(C(=O)O)C1` (stereo not drawn), the z-score was -0.101.
Turning to `CC(=O)c1cccc(NC(=O)Cn2cc3c(n2)CCCC3)c1`, the z-score is -0.279.
As for `S=c1[nH]nc(-c2ccc3ccccc3n2)o1`, the figure is -0.153; as for `Cc1ccc(-c2cc(C(=O)N/N=C/C=C/c3ccccc3)n[nH]2)o1`, 0.977.
For `COc1cc(C(=S)N2CCCC2)cc(OC)c1OS(=O)(=O)c1ccc(NC(C)=O)cc1`, the z-score is active: -3.19.
With `C/C(=N\OC(=O)c1ccc(C)cc1)c1sc(C)nc1C`, the z-score is -0.547.
Next, `CCCOc1ccc(Cc2c(Cl)nc(SC)nc2N(C)C)cc1`: -0.168.
The compound `CC(=O)c1cnc(SCCN2C(=O)c3ccccc3C2=O)nc1C` showed a z-score of 0.192.
Next, `Cc1cc(C#N)c(C)c(SCc2[nH]nc3c2C(c2ccccc2)C(C#N)=C(N)O3)n1` (stereo not drawn): -0.00817.
As for `O=C(C1CCCO1)N1CCN(C(=S)Nc2ccc(Cl)cc2Cl)CC1` (stereo not drawn), the figure is -0.271.
Compound `CCCCOC(=O)/C(=C\c1ccc([N+](=O)[O-])o1)NC(=O)c1ccccc1` registered a z-score of -0.382.
The compound `Cc1ccc(S(=O)(=O)c2ccc(Oc3ccccc3)cc2)cc1` registered a z-score of -0.194.
For the compound `CC(C)CC(c1nnnn1CC1CCCO1)N1CCN(Cc2ccc3c(c2)OCO3)CC1` (stereo not drawn), the z-score is -0.0948.
Compound `Cc1c(C(=O)NCCSc2ccc(Cl)cc2)cccc1[N+](=O)[O-]` registered a z-score of -0.226.
Next, `O=C(CSc1nnnn1-c1ccccc1)Nc1ncc2c(n1)CC(c1ccco1)CC2=O` (stereo not drawn): -0.485; `Nc1nnc(SCC(=O)NC23CC4CC(CC(C4)C2)C3)s1`: -0.0347.
As for `COc1ccc(CC(=O)Nc2cc(C)on2)cc1`, the figure is -0.231.
As for `O=c1cc(O)nc(SCc2ccccc2)n1-c1ccc(F)cc1`, the figure is -0.305; as for `CCn1c(-c2ccc(Cl)cc2)n[nH]c1=S`, 0.134.
Take `CN(CC(=O)NCCc1ccc(Cl)cc1)S(=O)(=O)c1ccc2c(c1)c(=O)n(C)c(=O)n2C`: the z-score worked out at 0.137.
As to `CC(=O)OCc1c(C(F)(F)F)nn(C)c1Oc1ccccc1`, the z-score was -0.0121.
Next, `COc1nccnc1NS(=O)(=O)c1ccc(NS(=O)(=O)c2ccc(NC(C)=O)cc2)cc1`: -0.0466; `CC1Cc2cc(/C(O)=C3\C(=O)C(=O)N(CCN(C)C)C3c3ccccc3F)ccc2O1` (stereo not drawn): -0.489.
Next, `COc1cc(C(=O)NCCc2nc3ccccc3n2C)cc(OC)c1OC`: -0.686; `CNC(=O)c1ccc2nc(NC(C)=O)sc2c1`: active: 8.42.
`O=C(Oc1cccc2ccccc12)c1cc(Cl)nc2ccccc12`: the z-score is -0.201.
Next, `O=C(N/N=C/c1c[nH]c2ccccc12)c1cc(-c2ccc(-c3ccccc3)cc2)n[nH]1`: -0.293.
Turning to `COc1ccc(C(C#N)(CCC#N)CCC#N)cc1OC`, the z-score was -0.234.
`C/C(N)=C(/C#N)C(=O)COC(=O)CCC1CCCC1` registered a z-score of -0.0734.
Next, `CC1CCCCN1CCCn1c(=S)[nH]c2ccccc2c1=O` (stereo not drawn): active: 3.46; `Brc1ccc(-c2nc3ncccn3c2NC2CCCCC2)o1`: -0.754; `COc1ccc(CCN2C(=O)C3CC=C(C)CC3C2=O)cc1OC` (stereo not drawn): 0.0314.
As for `COc1ccc(-n2c(SC(CN3CCCCC3)CN3CCCC3=O)nc3ccccc3c2=O)cc1` (stereo not drawn), the figure is -0.446; as for `CC(C)=NNC(=O)CN1C(=O)NC2NC(=O)NC21` (stereo not drawn), -0.0255; as for `Cc1c(C(=O)N2CCC(C(N)=O)CC2)sc(N)c1C#N`, 1.16.
The compound `CCOC(=O)CC1C(=O)NCCN1C(=S)Nc1ccccc1` (stereo not drawn) yielded a z-score of -0.192.
In turn, `Cn1ncc(Cl)c1C(=O)Nc1ccc(Cl)cn1` displayed a z-score of -0.172.
`O=C(CSCc1n[nH]c(=O)[nH]1)NCCOc1cccc(Oc2ccccc2)c1`: the z-score is -0.469.
As for `Cc1ccc(OC(=O)CCC(=O)N2CCc3ccccc32)cc1`, the z-score is 0.112.
Next, `CC(=O)c1c(N2CCOCC2)nc(=S)n(-c2cc(C)ccc2C)c1C`: 0.108; `CC(Oc1ccc(Br)cc1)C(=O)N1CCc2ccccc21` (stereo not drawn): -1.56; `CCn1c(=O)cc(OCC(=O)NCCCN2CC(C)CC(C)C2)c2ccccc21` (stereo not drawn): -0.193.
`Cc1cc(C(=O)OCC(=O)NC2CCCCC2)c(C)o1`: the z-score was -0.102.
`Cn1c(NC(=O)c2ccc(Cl)cc2)c(-c2ccccn2)c(=O)c2ccccc21` returned a z-score of 0.12.
Next, `O=C(COC(=O)[C@H](Cc1ccccc1)N1C(=O)c2ccccc2C1=O)Nc1ccc2c(c1)OCO2`: -0.487; `CCCCOC1(c2ccccc2)NC(=S)NN=C1c1ccccc1` (stereo not drawn): 0.993; `O=C(Nc1c(C(=O)N2CCOCC2)cnn1-c1ccccc1)c1ccco1`: -0.201.
As for `CCC(=O)N1N=C(c2c(-c3ccccc3)c3cc(Cl)ccc3[nH]c2=O)CC1c1ccco1` (stereo not drawn), the figure is -0.155; as for `CCC1CCCCN1C(=O)COc1cc(=O)n(C)c2ccccc12` (stereo not drawn), 0.0976; as for `CCOc1cc(S(=O)(=O)NCc2ccc3c(c2)OCO3)ccc1F`, 0.365.
Next, `O=C(O)CCC(=O)N1CCc2cc(S(=O)(=O)NCc3cccs3)ccc21`: -0.144; `CC(C)CC(=O)/C=C/n1c(=S)oc2ccccc21`: -0.237.
For the compound `NS(=O)(=O)c1ccc(NC(=S)N2CCN(S(=O)(=O)c3ccc(F)cc3)CC2)cc1`, the z-score was 0.195.
Next, `COc1ccc(S(=O)(=O)N(CCc2ccccc2)CC(=O)O)cc1Cl`: -0.104.
As for `O=C(CN1C(=O)NC2(CCCC2)C1=O)Nc1ccc(F)cc1`, the figure is 0.19; as for `CCOc1ccc(NC(=O)/C(C#N)=C/c2ccc(N3CCCC3)c(C)c2)cc1`, -0.0188; as for `Cc1cc(C)cc(N(CC(=O)NCc2ccco2)C(=O)c2snc(C(N)=O)c2N)c1`, -0.315.
Next, `COc1ccc(OC(C)C(=O)Nc2ccccc2C(F)(F)F)cc1` (stereo not drawn): -0.114; `Fc1ccc(N2CCN(/C=C/c3nnnn3-c3ccccc3)CC2)cc1`: -0.208.
As for `O=C1CN(c2nnnn2-c2ccccc2)CCN1`, the z-score was -0.124.
`CCN(CC)C(=O)/C(=C\c1cccc([N+](=O)[O-])c1)NC(=O)c1ccco1` came in with a z-score of -0.281.
Next, `Clc1ccc2[nH]cc(-c3nnnn3-c3ccccc3)c2c1`: 0.0708; `COc1ccc(CCC(=O)Nc2nc3c(s2)CN(C)CC3)cc1OC`: 0.859.
Next, `CCOC(=O)C1CCCN(C/C(O)=C(\C#N)c2nc(-c3ccc(Cl)cc3)cs2)C1` (stereo not drawn): 0.509.
Compound `COc1ccc(OC2C(=O)N(Cc3ccc(F)cc3)C2c2cc(OC)c(OC)c(OC)c2)cc1` (stereo not drawn) had a z-score of -0.147.
For the compound `COCCNC(=O)C(OC(=O)c1cc2oc(C)cc2n1C)C(C)C` (stereo not drawn), the z-score was 0.0671.
Regarding `C=CCn1c(-c2ccccc2)c[nH]c1=S`, the z-score was determined as 0.229.
Compound `CC(C)CN(/C=N/c1sc2c(c1C#N)CCCCC2)CC(C)C` had a z-score of 2.9.
Take `Cc1nc(NC(=O)CSc2nnnn2C)sc1C`: the z-score worked out at 0.112.
`Nc1c(-c2cccc(Cl)c2)cnn1-c1cccc(C(F)(F)F)c1` displayed a z-score of -0.78.
As for `O=C(CSc1nnc(CNC(=O)c2c(F)cccc2Cl)o1)Nc1ccccc1`, the figure is -0.312; as for `CC(C)Cn1c(CNC(=O)c2ccccc2)nc2ccccc21`, -0.201.
Regarding `C=CCNC(=O)CSc1nnc(-c2cccs2)o1`, the z-score amounted to 0.519.
As to `Cc1cccc(C)c1NC(=O)c1ccc(-c2ccc(Cl)cc2Cl)o1`, the z-score is 0.494.
Next, `CCCCn1c(SCC(=O)NCc2ccccc2)nc2ccc(N3CCOCC3)cc2c1=O`: 1.1; `O=C(Nc1cc(C(F)(F)F)cc(C(F)(F)F)c1)c1ccc(Cn2cc(C(F)(F)F)ccc2=O)cc1`: 0.0447.
As for `CCN1C2=C(C(=O)CCC2)C(c2ccc(O)cc2)C2=C1CCCC2=O`, the figure is 0.473; as for `CCOC(=O)c1c(NC(=O)c2c(-c3ccccc3)noc2C)sc(C)c1-c1ccccc1`, -0.174; as for `Cc1ccc(NC(=O)c2c(C(F)(F)F)nn(C)c2SCc2cccc(C(F)(F)F)c2)cc1C`, -0.106.
Take `CCOC(=O)C(CC)Sc1nc(-c2ccc(OC)cc2)nc2c1c(=O)n(C)c(=O)n2C` (stereo not drawn): the z-score stood at 0.0854.
`N#Cc1c2n(c(=O)[nH]c1=O)CCCCC2` yielded a z-score of -0.0381.
`CCCOc1ccc(NC(=O)C2CC(=O)N/C(=N/N=C(C)/C=C/c3ccc(N(C)C)cc3)S2)cc1` (stereo not drawn) had a z-score of 0.602.
Next, `COc1ccc(-c2csc3nc(-c4ccccc4F)oc(=O)c23)cc1OC`: -0.361; `COc1ccc(N2C(N)=NC(N)=NC2(C)C)cc1`: 0.15; `Cc1ccc(NC(=O)C2c3ccccc3Oc3ccccc32)c(C)c1`: -0.214.
